Laboratory results: publication PMC7641331, “Ctf18-RFC and DNA Pol ϵ form a stable leading strand polymerase/clamp loader complex required for normal and perturbed DNA replication” (Nucleic Acids Research, 2019)
These are yes or no findings as the source states them, for the method shown. In cells and extracts the contact can be indirect. Some binding calls cover weakened binding; strength is not graded here.

Chains of the proteins cited; added tags and fusions are not shown. Lines headed by an entry give the natural chain unless they say otherwise; changes in a name come on top. A line that says so, or that is headed by a name, gives the form on record, which may keep a tag or linker.
UniProt P24279: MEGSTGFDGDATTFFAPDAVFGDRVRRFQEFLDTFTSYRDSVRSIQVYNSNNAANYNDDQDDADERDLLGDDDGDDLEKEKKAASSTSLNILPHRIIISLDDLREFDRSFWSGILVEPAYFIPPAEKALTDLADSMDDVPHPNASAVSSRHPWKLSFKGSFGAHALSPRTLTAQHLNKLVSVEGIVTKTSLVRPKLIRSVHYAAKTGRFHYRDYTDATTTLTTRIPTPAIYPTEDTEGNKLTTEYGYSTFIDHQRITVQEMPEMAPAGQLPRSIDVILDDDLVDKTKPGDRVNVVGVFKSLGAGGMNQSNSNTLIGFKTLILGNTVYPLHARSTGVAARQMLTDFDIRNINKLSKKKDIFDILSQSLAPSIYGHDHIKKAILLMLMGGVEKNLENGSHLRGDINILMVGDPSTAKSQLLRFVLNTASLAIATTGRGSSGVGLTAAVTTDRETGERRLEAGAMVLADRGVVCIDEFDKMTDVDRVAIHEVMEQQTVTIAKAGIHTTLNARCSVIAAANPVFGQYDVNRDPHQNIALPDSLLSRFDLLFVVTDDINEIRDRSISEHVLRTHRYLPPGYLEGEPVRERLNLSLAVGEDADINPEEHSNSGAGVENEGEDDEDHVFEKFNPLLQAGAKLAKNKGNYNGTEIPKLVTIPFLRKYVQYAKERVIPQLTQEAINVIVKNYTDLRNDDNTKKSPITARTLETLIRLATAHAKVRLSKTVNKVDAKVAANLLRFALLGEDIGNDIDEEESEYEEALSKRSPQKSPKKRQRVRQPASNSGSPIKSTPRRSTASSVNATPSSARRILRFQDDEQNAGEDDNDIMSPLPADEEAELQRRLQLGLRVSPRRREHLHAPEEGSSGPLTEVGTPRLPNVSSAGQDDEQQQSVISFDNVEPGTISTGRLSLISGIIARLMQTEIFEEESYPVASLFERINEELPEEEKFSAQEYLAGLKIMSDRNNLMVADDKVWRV
UniProt Q07864: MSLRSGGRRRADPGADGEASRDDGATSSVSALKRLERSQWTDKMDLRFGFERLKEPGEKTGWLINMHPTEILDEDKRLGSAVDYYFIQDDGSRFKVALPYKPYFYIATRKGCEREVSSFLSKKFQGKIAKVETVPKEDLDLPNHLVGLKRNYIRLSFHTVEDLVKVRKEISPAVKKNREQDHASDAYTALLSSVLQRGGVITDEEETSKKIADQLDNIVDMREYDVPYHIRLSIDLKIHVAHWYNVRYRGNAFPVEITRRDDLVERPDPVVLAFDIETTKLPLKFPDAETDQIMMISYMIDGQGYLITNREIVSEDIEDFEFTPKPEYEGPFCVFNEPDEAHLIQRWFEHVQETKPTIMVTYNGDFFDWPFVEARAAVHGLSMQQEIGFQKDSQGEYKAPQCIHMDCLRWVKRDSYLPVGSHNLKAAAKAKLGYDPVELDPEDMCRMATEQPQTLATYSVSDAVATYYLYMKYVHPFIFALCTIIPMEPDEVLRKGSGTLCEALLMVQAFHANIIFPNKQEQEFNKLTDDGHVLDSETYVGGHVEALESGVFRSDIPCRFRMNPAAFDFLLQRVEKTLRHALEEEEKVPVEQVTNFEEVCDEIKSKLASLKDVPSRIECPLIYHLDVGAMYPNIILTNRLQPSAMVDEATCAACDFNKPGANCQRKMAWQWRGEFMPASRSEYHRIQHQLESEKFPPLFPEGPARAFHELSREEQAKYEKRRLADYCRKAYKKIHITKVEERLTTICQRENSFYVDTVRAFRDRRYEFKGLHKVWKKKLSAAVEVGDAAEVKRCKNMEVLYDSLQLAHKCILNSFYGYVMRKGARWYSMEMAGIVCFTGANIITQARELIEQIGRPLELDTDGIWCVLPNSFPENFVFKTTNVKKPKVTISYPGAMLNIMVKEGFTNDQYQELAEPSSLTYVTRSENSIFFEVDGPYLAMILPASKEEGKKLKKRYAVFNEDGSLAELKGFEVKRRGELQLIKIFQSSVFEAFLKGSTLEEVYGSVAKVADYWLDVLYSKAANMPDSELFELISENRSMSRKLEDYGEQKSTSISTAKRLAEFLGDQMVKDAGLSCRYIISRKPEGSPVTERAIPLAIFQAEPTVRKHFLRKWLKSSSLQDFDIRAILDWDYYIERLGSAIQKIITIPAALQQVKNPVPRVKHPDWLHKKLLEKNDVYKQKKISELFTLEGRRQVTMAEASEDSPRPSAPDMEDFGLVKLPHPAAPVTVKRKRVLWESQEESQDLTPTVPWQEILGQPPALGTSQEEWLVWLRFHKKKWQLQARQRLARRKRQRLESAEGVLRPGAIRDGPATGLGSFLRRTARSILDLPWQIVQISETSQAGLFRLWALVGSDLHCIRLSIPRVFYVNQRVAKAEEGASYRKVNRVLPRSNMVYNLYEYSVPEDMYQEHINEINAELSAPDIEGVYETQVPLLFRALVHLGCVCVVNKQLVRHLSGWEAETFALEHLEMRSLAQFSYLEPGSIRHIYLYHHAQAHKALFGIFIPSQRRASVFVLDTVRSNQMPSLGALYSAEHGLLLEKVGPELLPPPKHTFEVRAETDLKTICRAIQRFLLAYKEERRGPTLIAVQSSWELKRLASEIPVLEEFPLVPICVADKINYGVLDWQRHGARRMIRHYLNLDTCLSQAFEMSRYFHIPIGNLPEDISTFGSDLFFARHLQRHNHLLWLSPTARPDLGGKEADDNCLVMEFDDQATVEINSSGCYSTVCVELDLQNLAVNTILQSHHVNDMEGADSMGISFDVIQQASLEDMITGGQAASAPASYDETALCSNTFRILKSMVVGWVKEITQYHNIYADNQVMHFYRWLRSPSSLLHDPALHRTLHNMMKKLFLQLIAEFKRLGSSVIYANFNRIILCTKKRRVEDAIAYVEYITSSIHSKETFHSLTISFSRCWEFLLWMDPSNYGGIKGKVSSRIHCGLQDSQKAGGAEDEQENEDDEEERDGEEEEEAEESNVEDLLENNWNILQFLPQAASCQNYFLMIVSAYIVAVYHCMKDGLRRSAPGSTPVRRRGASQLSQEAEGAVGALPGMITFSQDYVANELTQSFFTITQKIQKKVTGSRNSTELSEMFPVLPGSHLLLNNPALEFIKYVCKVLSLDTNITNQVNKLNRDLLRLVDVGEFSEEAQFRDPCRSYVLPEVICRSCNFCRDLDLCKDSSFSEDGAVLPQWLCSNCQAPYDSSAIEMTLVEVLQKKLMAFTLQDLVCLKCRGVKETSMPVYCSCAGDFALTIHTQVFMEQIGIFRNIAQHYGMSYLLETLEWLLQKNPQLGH
POLE1 pole1-5A (pole1 315-AAIAAFA-321) with an N-terminal GFP tag (Q07864, form named): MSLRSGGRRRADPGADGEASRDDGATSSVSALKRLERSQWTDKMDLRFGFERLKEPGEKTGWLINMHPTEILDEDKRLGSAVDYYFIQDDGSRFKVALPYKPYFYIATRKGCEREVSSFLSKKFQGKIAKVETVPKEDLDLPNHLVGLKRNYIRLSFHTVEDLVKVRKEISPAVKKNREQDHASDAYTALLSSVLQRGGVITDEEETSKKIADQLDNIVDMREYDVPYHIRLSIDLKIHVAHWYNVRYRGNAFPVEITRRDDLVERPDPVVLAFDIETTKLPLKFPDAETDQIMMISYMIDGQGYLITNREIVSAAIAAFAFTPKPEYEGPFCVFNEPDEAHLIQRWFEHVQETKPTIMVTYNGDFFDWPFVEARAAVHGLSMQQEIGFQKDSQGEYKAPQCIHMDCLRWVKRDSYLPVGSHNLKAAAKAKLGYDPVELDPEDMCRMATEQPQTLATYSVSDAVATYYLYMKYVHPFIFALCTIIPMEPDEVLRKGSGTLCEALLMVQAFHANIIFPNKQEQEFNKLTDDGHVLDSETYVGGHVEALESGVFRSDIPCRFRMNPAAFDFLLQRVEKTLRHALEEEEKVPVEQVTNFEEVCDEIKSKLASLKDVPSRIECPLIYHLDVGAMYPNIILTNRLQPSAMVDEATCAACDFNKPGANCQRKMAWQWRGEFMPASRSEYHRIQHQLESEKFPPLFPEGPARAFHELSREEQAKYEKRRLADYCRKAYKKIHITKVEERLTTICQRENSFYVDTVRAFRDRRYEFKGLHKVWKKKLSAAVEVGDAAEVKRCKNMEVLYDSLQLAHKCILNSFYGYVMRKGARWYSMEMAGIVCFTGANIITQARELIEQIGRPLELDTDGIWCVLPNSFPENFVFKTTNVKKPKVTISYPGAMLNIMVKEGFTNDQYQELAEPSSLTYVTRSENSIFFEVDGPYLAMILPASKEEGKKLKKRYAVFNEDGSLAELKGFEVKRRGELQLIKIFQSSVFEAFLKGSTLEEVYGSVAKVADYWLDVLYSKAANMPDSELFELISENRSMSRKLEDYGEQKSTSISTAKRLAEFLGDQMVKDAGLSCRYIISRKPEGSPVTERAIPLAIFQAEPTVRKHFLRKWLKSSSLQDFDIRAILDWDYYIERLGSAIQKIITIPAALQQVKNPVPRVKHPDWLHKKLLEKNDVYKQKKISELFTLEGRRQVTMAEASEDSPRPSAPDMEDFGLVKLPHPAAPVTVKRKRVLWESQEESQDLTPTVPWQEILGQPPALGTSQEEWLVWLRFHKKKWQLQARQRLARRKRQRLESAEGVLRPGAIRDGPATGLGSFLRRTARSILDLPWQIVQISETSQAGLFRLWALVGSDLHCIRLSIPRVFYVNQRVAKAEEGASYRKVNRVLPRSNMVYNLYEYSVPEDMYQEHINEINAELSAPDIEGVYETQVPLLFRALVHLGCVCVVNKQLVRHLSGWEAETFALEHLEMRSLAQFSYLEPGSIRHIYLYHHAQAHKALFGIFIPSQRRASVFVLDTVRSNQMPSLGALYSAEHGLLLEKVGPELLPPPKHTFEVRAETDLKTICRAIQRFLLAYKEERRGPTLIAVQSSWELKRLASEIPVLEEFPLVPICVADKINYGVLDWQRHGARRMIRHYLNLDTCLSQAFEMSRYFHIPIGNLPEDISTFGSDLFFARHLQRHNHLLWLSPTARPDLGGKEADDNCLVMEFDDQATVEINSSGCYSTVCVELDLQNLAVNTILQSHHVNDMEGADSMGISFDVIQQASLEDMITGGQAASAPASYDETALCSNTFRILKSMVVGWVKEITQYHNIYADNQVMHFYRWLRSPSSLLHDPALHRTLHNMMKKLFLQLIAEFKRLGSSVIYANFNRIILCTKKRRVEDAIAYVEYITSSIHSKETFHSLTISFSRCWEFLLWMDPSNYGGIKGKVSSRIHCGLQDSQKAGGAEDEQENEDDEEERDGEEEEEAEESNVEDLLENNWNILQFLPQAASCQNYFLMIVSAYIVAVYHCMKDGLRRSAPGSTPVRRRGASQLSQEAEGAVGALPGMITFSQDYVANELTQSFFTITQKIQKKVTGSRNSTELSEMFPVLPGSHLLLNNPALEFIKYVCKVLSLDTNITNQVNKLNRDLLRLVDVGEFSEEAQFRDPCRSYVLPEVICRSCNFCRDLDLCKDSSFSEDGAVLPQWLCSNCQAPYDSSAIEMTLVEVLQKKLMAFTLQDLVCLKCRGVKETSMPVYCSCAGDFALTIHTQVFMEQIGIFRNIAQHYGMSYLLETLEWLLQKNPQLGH
UniProt Q8WVB6: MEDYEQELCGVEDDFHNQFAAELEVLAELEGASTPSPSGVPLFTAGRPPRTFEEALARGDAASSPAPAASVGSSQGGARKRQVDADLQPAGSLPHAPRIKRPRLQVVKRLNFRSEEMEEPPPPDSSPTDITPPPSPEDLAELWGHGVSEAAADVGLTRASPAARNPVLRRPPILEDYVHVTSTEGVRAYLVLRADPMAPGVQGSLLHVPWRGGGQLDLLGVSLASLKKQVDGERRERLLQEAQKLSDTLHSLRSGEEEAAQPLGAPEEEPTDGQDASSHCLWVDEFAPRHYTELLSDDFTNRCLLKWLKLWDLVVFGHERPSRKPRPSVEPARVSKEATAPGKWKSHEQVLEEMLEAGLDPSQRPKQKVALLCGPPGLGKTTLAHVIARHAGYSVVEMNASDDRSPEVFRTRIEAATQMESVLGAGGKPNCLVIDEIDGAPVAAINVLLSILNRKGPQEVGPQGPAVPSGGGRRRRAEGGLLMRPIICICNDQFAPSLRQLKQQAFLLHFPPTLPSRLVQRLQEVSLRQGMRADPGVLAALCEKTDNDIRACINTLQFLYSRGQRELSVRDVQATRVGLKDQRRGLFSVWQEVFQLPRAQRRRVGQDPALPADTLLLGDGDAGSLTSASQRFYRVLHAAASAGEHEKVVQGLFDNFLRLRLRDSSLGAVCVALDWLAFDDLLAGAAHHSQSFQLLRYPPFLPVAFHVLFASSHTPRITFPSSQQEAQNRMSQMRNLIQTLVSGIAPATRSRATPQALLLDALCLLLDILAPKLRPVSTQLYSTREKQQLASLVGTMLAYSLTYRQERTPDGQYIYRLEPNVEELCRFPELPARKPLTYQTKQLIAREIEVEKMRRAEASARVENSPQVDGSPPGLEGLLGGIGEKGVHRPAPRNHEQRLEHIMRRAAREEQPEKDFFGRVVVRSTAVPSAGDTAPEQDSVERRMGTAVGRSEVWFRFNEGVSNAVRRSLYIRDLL

How the values were obtained:
[1] = target: Mcm3 with a TAP tag (S. cerevisiae (endogenous in W303-1a derived strains)) (UniProt P24279); test: co-IP; Mcm3-TAP cells released into S phase for 30 min and treated with formaldehyde; anti-TAP beads; immunoblotting; also following replication stress (Supplementary Figure S4E)
[2] = target: POLE1 pole1-5A (pole1 315-AAIAAFA-321) with a C-terminal GFP tag (human) (UniProt Q07864); test: co-IP; HeLa cells 48 h after transient transfection of GFP-tagged POLE1; nuclease-treated lysate (50 mM HEPES–KOH pH 7.5, 100 mM KAc, 0.1% Igepal); GFP TrapA beads; western blot
[3] = target: POLE1 with an N-terminal GFP tag, wild type (human) (UniProt Q07864); test: as above
[4] = target: POLE1 pole1-5A (pole1 315-AAIAAFA-321) with an N-terminal GFP tag (human) (UniProt Q07864); test: as above
[5] = target: POLE1 with a C-terminal GFP tag, wild type (human) (UniProt Q07864); test: as above

Row | binding [1] | binding [2] | binding [3] | binding [4] | binding [5] | Substance
1 | binds weakly | – | – | – | – | Ctf18-RFC from the ctf18-RAA strain (ctf18 V730R, R731A, K732A) (from UniProt P49956 1-741; P25559 1-380; P38877 1-133; P40348 1-353; P38629 1-340; P40339 1-323; P38251 1-354) (complex)
2 | – | no binding | binds | no binding | binds | Ctf18 (human, endogenous in HeLa cells) (from UniProt Q8WVB6 1-975)
3 | binds weakly | – | – | – | – | Ctf18-RFC from the ctf18-RAA dcc1WH3Δ strain (from UniProt P49956 1-741; P25559 1-318; P38877 1-133; P40348 1-353; P38629 1-340; P40339 1-323; P38251 1-354) (complex)
4 | binds | – | – | – | – | PCNA (from UniProt P15873 1-258)
